This is an account of results in the supplement of paper PMC10126150.

Sequences with one replicate were seen in a single cluster, so their values are uncertain.

The series deals with ATP. Briefly: switch fluorescence ratio, 500 uM ATP over buffer (Cy3 cluster intensity, sum of 5 cycles each) (fold (ratio)); higher = stronger signal-on switching upon ATP binding; sequences stand for … in TCGTCGGCAGCGTCAGATGTGTATAAGAGACAGTTTTTTTTTTTTTTTTTTTTTTTTT…TC. The note with it: aptamer strand: ATP DNA aptamer (quencher-CACCTGGGGGAGTATTGCGGAGGAAGG + anchor), 100 nM annealed; ATP concentration: 500 uM; one replicate. The procedure, abridged:
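Exposure to 500 uM ATP lasted 15 min at 22 °C before imaging, and a selection-buffer image was taken beforehand, for Cy3-labelled switching-strand clusters on a modified Illumina MiSeq flow-cell annealed to 100 nM quencher-labelled ATP aptamer. Five buffer/ATP cycles were run with NaOH stripping and re-annealing between them. The fluorescence ratio per cluster is summed target-cycle over summed buffer-cycle Cy3 intensity, averaged per switch-domain sequence. Clusters outside 100-1000 RFU were excluded.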

Consider TCGGGGGCC, for which the switch fluorescence ratio amounted to 1.01.
ATTAAACCGA: the switch fluorescence ratio turned out to be 1.3.
Regarding AGTCCATAGG, the switch fluorescence ratio was 1.01.
Take CATTTAGGTG: the switch fluorescence ratio came out at 1.14.
CTACCATGAC: the switch fluorescence ratio was 2.03.
Regarding TTTGTCTAAA, the switch fluorescence ratio came out at 0.995.
Regarding CATGGGTATC, the switch fluorescence ratio was determined as 1.
In the case of CCTTAATACA, the switch fluorescence ratio is 1.13.
Consider CCGTTCCTAG, for which the switch fluorescence ratio is 1.09.
With GATAGGTAGT, the switch fluorescence ratio worked out at 1.03.
As for GCAATGAACA, the switch fluorescence ratio is 1.02.
The result for CGCTCAGGAG reads 1.26.
Turning to GAGTTGCAAC, the switch fluorescence ratio came out at 1.05.
As to CGAGTAGAT, the switch fluorescence ratio was 1.04.
As for GCACTGGCTA, the switch fluorescence ratio was 1.03.
GCGTTGGTGG: the switch fluorescence ratio is 0.978.
On to AAGAGGGGCA, for which the switch fluorescence ratio came out at 0.987.
As for CTAGCTCACG, the switch fluorescence ratio amounted to 1.06.
With AAAGTCTCAA, the switch fluorescence ratio amounted to 1.01.
CCGGTTAGTT: the switch fluorescence ratio was 1.01.
For the sequence GTAATGCGTA, the switch fluorescence ratio amounted to 1.03.
Consider AATAATTGCC, for which the switch fluorescence ratio worked out at 1.08.
On to GCTACCCTAT, for which the switch fluorescence ratio amounted to 1.08.
As to CGGGGTCACT, the switch fluorescence ratio turned out to be 1.03.
Take ATGAGAGTGG: the switch fluorescence ratio is 0.991.
GCCACGTACG: the switch fluorescence ratio was determined as 1.66.
The result for TTGGATTAGC reads 0.993.
Take TGTCGGAAGT: the switch fluorescence ratio was 1.02.
As for GCATCATCTT, the switch fluorescence ratio stood at 1.02.
AATACGCGAA: the switch fluorescence ratio was 1.26.
For AAACACTTGT, the switch fluorescence ratio came to 1.02.
As to ATGTTTTGGC, the switch fluorescence ratio was found to be 0.953.
Turning to AGGTCAAGCA, the switch fluorescence ratio is 1.02.
As to AAATTAAGGT, the switch fluorescence ratio stood at 0.948.
Next, GGTTGCTTAG: 0.991; AAGCTCCTTA: 1; TGCTTAAGCT: 0.984.
The result for CAGGGTCGTA reads 0.971.
For the sequence AGGTCATTGG, the switch fluorescence ratio stood at 0.986.
In the case of ATGGACAGAA, the switch fluorescence ratio came to 1.
Next, AACCCTACAA: 1.05.
Next, GCGGTAGTGA: 1.01; GATTGTGCAT: 1.02.
As to TAGACATCT, the switch fluorescence ratio was 1.01.
Take TCGCCCAAAT: the switch fluorescence ratio was 1.17.
On to GTGTGACATT, for which the switch fluorescence ratio is 0.978.
For the sequence ACATTGACTC, the switch fluorescence ratio came out at 1.18.
As to AGCGGCTGTT, the switch fluorescence ratio was 0.98.
As for GAATCGGCG, the switch fluorescence ratio was determined as 0.92.
Next, AATCGATCGC: 0.963; AGCCATTTAG: 0.994.
Consider TACCTCGTAG, for which the switch fluorescence ratio is 1.01.
ATTATTTCC: the switch fluorescence ratio is 1.07.
For the sequence TGTTACGCCT, the switch fluorescence ratio worked out at 1.01.
Next, TGAGTTACGG: 1.02; GTGCGAACGT: 0.993; CCGCTAACCT: 2.81.
Consider CGTTAACCAT, for which the switch fluorescence ratio was 1.03.
The result for TGTCCGAGAC reads 1.06.
With AAGTTTGCGA, the switch fluorescence ratio stood at 0.994.
GGTGGTGCAC: the switch fluorescence ratio turned out to be 0.978.
As for GAAGACACTA, the switch fluorescence ratio is 1.07.
For TGACCAGTAC, the switch fluorescence ratio was found to be 3.17.
Next, GACGGAGGGA: 1.22.
Take CATAAATCAC: the switch fluorescence ratio stood at 1.07.
In the case of CCCTTCTAAC, the switch fluorescence ratio was 1.02.
For the sequence GGTCTGGATA, the switch fluorescence ratio was 0.975.
Consider ACAATAGTCG, for which the switch fluorescence ratio amounted to 1.11.
As for CGTTCCTGGG, the switch fluorescence ratio was found to be 1.01.
For the sequence GCACTGTGCT, the switch fluorescence ratio stood at 0.991.
Regarding TAAGATCTGC, the switch fluorescence ratio was found to be 0.951.
Turning to CGTGAAAGGG, the switch fluorescence ratio was determined as 0.941.
In the case of TCTGTTTT, the switch fluorescence ratio is 0.948.
Consider CATCT, for which the switch fluorescence ratio came to 0.983.
In the case of ACGTCGGCTA, the switch fluorescence ratio was found to be 1.05.
As to TCAATTTTGG, the switch fluorescence ratio came to 0.964.
Turning to AGCTCAACAT, the switch fluorescence ratio worked out at 1.02.
Turning to TGGTCGGCTT, the switch fluorescence ratio turned out to be 1.06.
